In all, about 310,000 compounds went through this assay and about 2,200 (0.71%) showed an effect of 50% or more. Effects have a minus sign here. This is one part of the list.
These compounds were tested against human ether-à-go-go-related gene (hERG) potassium channel (human, UniProt Q12809) (assay: primary screen, population patch clamp on CHO cells stably expressing hERG).
human ether-à-go-go-related gene (hERG) potassium channel, sequence (Q12809 whole entry, looked up): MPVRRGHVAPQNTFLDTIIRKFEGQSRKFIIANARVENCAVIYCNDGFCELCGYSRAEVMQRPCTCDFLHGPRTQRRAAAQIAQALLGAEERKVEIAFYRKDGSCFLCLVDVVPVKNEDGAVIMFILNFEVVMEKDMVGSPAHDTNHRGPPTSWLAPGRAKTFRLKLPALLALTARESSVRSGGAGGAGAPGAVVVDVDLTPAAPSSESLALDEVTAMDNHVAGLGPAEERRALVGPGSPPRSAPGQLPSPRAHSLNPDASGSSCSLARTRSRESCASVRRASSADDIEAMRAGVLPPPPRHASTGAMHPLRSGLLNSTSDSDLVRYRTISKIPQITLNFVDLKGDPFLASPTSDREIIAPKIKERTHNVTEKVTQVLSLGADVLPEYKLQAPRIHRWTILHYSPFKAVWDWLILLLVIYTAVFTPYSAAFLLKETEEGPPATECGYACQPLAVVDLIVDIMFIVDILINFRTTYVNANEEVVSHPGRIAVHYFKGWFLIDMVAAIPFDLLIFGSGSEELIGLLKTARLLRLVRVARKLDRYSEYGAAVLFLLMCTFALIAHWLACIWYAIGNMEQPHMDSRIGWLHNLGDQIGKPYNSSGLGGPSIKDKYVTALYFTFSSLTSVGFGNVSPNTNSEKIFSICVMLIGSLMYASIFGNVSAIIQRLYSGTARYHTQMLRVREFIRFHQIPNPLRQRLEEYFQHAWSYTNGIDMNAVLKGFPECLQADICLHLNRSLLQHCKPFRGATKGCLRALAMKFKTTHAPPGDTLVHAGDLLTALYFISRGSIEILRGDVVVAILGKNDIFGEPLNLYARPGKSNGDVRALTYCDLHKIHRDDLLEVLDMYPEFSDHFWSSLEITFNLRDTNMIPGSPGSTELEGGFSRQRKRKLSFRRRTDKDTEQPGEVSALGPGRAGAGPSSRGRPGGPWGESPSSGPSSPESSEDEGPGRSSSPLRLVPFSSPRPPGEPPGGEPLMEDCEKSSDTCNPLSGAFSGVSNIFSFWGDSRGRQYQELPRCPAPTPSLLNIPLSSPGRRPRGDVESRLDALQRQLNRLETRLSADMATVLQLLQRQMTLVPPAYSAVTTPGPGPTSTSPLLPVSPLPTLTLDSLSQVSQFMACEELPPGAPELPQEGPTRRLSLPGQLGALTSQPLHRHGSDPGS

Structure (SMILES)	hERG current change (%, negative = inhibition) at 1uM
CCCCN1C(=O)NC(NC(C)=O)(C(F)(F)F)C1=O (stereo not drawn)	12.5%
C=CCOC(=O)C1=C[C@H](c2cn(C(C)=O)c3ccccc23)C[C@H](OCCCCO)O1	-0.762%
COc1cc2c(cc1NC(=O)COC(=O)[C@@H](NS(=O)(=O)c1ccccc1)C(C)C)oc1ccccc12	11%
COc1ccccc1CN1CCN(Cc2nc(Cc3ccccc3)no2)CC1	-1.92%
O=C(CSc1nc(-c2ccco2)cc(C(F)(F)F)n1)Nc1ccc2c(c1)CCC2	-5.73%
CN1CCN(CCN2CCn3c2nc2ccccc23)CC1.Cl	5.64%
CCCCCn1cnnc1SCC(=O)c1ccc2c(c1)OCO2	0.674%
COc1cc2c(cc1OC)CN(C(=O)C(CCSC)NS(=O)(=O)c1ccc(C)cc1)CC2 (stereo not drawn)	11%
Cc1ccccc1NCC(=O)c1ccc(Br)cc1	3.96%
C=C(C)CNC(=S)NNC(=O)c1ccco1	18.9%
COc1ccc2c(c1)C(=O)N1[C@H]3c4cc(C)ccc4OC[C@@H]3[C@H](c3ccccc3)[C@]1(C)C(=O)N2	7.91%
COc1ccc(CNC(=O)C2CC(C)=C(C)CC2C(=O)O)cc1OC (stereo not drawn)	19.5%
Fc1cccc2sc(Nc3nnc(-c4ccco4)o3)nc12	30.5%
Cc1cc(C)c2nc(-c3cccnc3)cc(C(=O)Nc3ccc(S(=O)(=O)Nc4onc(C)c4C)cc3)c2c1	8.82%
O=C(O)CCCCCCCC(=O)O	14.6%
O=C(c1ccccc1)c1cccc(NC(=O)c2ccco2)c1	1.67%
N#Cc1nc(-c2cccs2)oc1NCc1ccco1	6.98%
COC(=O)[C@@H]1CCCN1C(=O)c1cc(COc2cccc3cccnc23)on1	9.43%
Cc1cc(C)n(-c2ccc(C(=O)OCC(=O)c3c(N)n(C)c(=O)n(C)c3=O)cc2)n1	-1.25%
Cc1nonc1C1CCCN1C(=O)c1cc(COc2ccc(F)cc2F)on1 (stereo not drawn)	8.83%
Cc1cccc(C2c3[nH]c4ccccc4c3CCN2C(=O)Cc2n[nH]c(C)n2)n1 (stereo not drawn)	13.8%
O=C(O)c1nn(CCOc2ccc(Cl)cc2Cl)c(=O)c2ccccc12	20.5%

Structure (SMILES)	hERG current change (%, negative = inhibition) at 1uM
O=C(Cc1nn[nH]n1)NCCC1=CCCCC1	12.9%
N/N=C(\c1ccccc1)C12CN3CN(CN(C3)C1)C2	16%
Cc1cc(C(=O)OCc2nc3ccccc3s2)c(C)o1	1.87%
CC1(C)CC(C(CC(=O)O)c2ccccc2)CCO1 (stereo not drawn)	21.2%
NS(=O)(=O)c1ccc(CNC(=O)/C=C/c2ccccc2)cc1	12.7%
CCOc1ccc(CN2CCN(CC(O)Cn3c4ccccc4c4ccccc43)CC2)cc1 (stereo not drawn)	3.32%
NC(=O)N1CCC2(CC1)NC(=O)N(c1ccccc1)N2	9.56%
CC1SCC(NC(=O)c2ccc(Cl)cc2)CS1 (stereo not drawn)	2.14%
CC1(C)C(=O)OC(c2cccn2-c2ccc([N+](=O)[O-])cc2)C2(CCCCC2)C1=O (stereo not drawn)	12.7%
Cl.NS(=O)(=O)c1cccc(NC(=O)c2cc(-c3cccs3)nc3ccccc23)c1	11.7%
CCC(=O)Oc1ccc2ccccc2c1CNC(=O)c1ccccc1	3.78%
O=C(NC1CCCCC1)C(c1ccc2ncccc2c1)N(Cc1ccccc1)C(=O)c1ccc2c(c1)OCCO2 (stereo not drawn)	11.2%
CN1C(=O)[C@H]2[C@@H](/C=C/c3ccccc3)N3C(=O)CN(CCO)C(=O)[C@@]3(Cc3ccccc3)[C@H]2C1=O	5.07%
CCCCN(C(=O)c1c(C)noc1C)c1c(N)n(CCCC)c(=O)[nH]c1=O	13.2%
CC(=O)NCc1ccc(-c2nc3ccccc3s2)cc1	12.7%
CC1=C(C(=O)Nc2cccc(C(=O)N3CCC(C(N)=O)CC3)c2)SCCO1	23%
COc1ccccc1-c1nc2n(n1)C(c1ccccc1Cl)C(C(N)=O)=C(C)N2 (stereo not drawn)	2.61%
CCOC(=O)c1[nH]c2ccccc2c1NC(=O)c1ccc(S(=O)(=O)N(C)C)cc1	6.38%
Cc1nnc(C)n1/N=C/c1cccc([N+](=O)[O-])c1	14.2%
COc1ccc(NC(=O)CSc2nc(C)cc(C)n2)cc1	11.2%
COC(=O)c1ccc(-n2nnnc2SCC(=O)Nc2ccccc2F)cc1	14.4%
Clc1ccc(C(CCN2CCCC2)Cc2ccccc2)cc1 (stereo not drawn)	-6.23%

Structure (SMILES)	hERG current change (%, negative = inhibition) at 1uM
CC(C)(CNC(=O)c1cccc(S(=O)(=O)Nc2ccc(Br)cc2)c1)N1CCOCC1	-1.64%
Cc1ccc(OCCC(=O)OCC(=O)Nc2ccc3c(c2)OCCO3)cc1	-2.11%
COc1ccc(C)cc1S(=O)(=O)N1CCN(c2ccccc2)CC1	14.3%
COc1cc(/C=N/NC(=O)c2ccc(COc3cc(C)ccc3C(C)C)cc2)cc(OC)c1O	7.3%
CCc1cc(C)cc(OCCNC(=O)c2cncc(Br)c2)c1	-3.21%
COCCCNC(=O)Cn1c(=O)n(CCCCCC(=O)NCc2ccc3c(c2)OCO3)c(=O)c2sccc21	-14.2%
Cc1ccc(CN=C(Nc2ccccc2)NC2CCCCC2)cc1	-1.92%
COc1ccc(OC)c(CCNC(=O)c2cccc(NC(=O)C3=C(C)OCCS3)c2)c1	24%
O=C(Cc1cccc(C(F)(F)F)c1)NCC(=O)Nc1cc(Cl)ccc1Cl	6.69%
COC(=O)C(O)(CC(=O)Nc1ccc(Cl)cc1F)C(F)(F)F (stereo not drawn)	15%
CCOc1ccccc1N(CC(=O)NC1CCCC1)C(=O)CCC(=O)Nc1cc(C)on1	10.1%
Cc1ccc(NC2CCCN(C(=O)c3cccc(-c4ncc[nH]4)c3)C2)cc1C (stereo not drawn)	14.4%
CCCC(=O)NC(=S)Nc1cccc(Cl)c1N1CCCC1	9.82%
COc1ccc(N2CCN(S(=O)(=O)c3cn(C)cn3)CC2)cc1	5.72%
COc1ccc2[nH]c(=O)c(CN(CC3CCCO3)C(=S)Nc3ccc(C)cc3)cc2c1 (stereo not drawn)	6.37%
O=C1CN(C(=O)c2cc3ccccc3oc2=O)C(c2ccc(F)cc2)c2cc(Br)ccc2N1 (stereo not drawn)	-4.56%
O=C1NC(=S)N/C1=C\C=C\c1ccccc1	12.7%
Cc1csc(NC(=O)CCCC(=O)O)c1-c1nc2ccccc2s1	17.3%
COC(=O)[C@@H]1C[C@@]2(Br)c3ccccc3N(S(=O)(=O)c3ccccc3)[C@H]2N1C(=O)OC	6.41%
COC(=O)c1sccc1S(=O)(=O)Nc1ccc(S(N)(=O)=O)cc1	-16.1%
N#Cc1ccc(-c2nc3ccccc3nc2-c2ccccc2)cc1C#N	19%
CN(C(=O)c1ccccc1OCc1ccc(Cl)cc1)c1ccccc1	9.98%

Structure (SMILES)	hERG current change (%, negative = inhibition) at 1uM
CCN(CC(=O)Nc1ccc(N2CCOCC2)cc1)Cc1nc2ccccc2c(=O)[nH]1	-3.01%
C=CCc1ccccc1OCCn1ccnc1	11.5%
O=C1Nc2ccccc2/C1=N\c1sc2c(c1C(=O)Nc1ccccc1)CCCC2	-19.9%
Cc1ccc(S(=O)(=O)Cn2nnnc2CN(Cc2ccco2)Cc2cccs2)cc1	12.8%
CC1CCN(C(=O)C2CCN(S(=O)(=O)c3ccc(-n4cnnn4)cc3)CC2)CC1	10.1%
Cc1ccc(-c2nnc(NC(=O)c3ccco3)o2)c(C)c1	11.4%
COC(=O)c1cc(NC(=O)CN2CCOCC2)cc(C(=O)OC)c1	15.5%
COc1ccc(-n2c(C)cc(C(=O)NC3CCCCC3)c2C)cc1	3.46%
CCn1c(CSc2nc(C)cc(C)n2)nnc1SCC(=O)N1CCCc2ccccc21	10.6%
CCc1cc(C(=O)N2CCCC(CCC(=O)N3CCN(c4ccccn4)CC3)C2)no1 (stereo not drawn)	7.82%
CCCNC(=O)c1ccc2c(=O)c(O)c(C)[nH]c2c1	-19.3%
CN(C)S(=O)(=O)c1cccc(C(=O)NCCOC(=O)c2cc(F)c(F)cc2Cl)c1	13.6%
COc1ccccc1N(C)S(=O)(=O)c1ccc(C)c(C(=O)Nc2nccs2)c1	7.41%
Cc1[nH]c(=O)c(C#N)c2c1CCCC2	10.2%
CCOc1ccc(N2C(=O)CC(NC3CCN(C(=O)c4cccs4)CC3)C2=O)cc1 (stereo not drawn)	12.8%
Cc1c(CN(C)Cc2cn(C)nc2-c2ccccc2F)[nH]c2ccccc12	10.7%
CNC(=O)Cn1nc(-c2ccc(Cl)cc2)c2ccccc2c1=O	21.3%
COC(=O)CN(c1cccc(OC)c1)S(C)(=O)=O	14.9%
CC1CC(=O)Nc2ccccc2N1S(=O)(=O)c1cccs1 (stereo not drawn)	6.21%
N#C/C(=C\c1cccnc1)C(=O)Nc1ccc(Cl)cc1	8.91%
Nc1ccc(S(=O)(=O)C(F)(F)F)cc1N	-1.04%

— paper PMC4336329 (PLoS ONE, 2015)
